# Source: the supplement of paper PMC12632987
# The full ranking holds about 4,500 sequences; the median of “median log2 fold change of GCK-ALFA target abundance (FLAG IP / Myc IP barcode read proportion)” is about 0.078, and the lowest 2% start at about -0.6. Some of the results follow.
# B1: GBRAP_45_5800 (protein)
# chain: MEELEEEIKELTELLKKIKEEVEKLKELDPEKFGKVLKLVKEALKILEEGPDTVEKAQELLKLVEEALKLLASSEHASGELLDLALEAVNEAADILELLK
# B2: GBRAP_128_3446 (protein)
# chain: KEEEIEKYAKEVKEEFKEKLKEGPKAAAEYFIEVLEKVDDEKAEKITKEVIEYLKEQDIKLASEVLDEMMRLSKRLTPEKRAILLEYVSPLLYELEEKEE
# B3: GBRAP_11_2805 (protein)
# chain: KEEKLKELRKLLEKAAELIDKLLKVGTDDKELLKEIEKVLEEAEKLAKELGDESLIKLVEIAKELVKQAKADPKNAEQYLKLARATLRVAEGQVLLLIEE
# B4: GBRAP_74_6548 (protein)
# chain: SAELLARAREAAAAGDLDTLVELTREALAAGDKETAAEILALLLRTAVARADELTLAEADALVDVIDEVLASGVTKLLSRETLKLLVEVLARAKELEEAA
# B5: GBRAP_184_5208 (protein)
# chain: EIKEFEIEFENEEELKEKLEELLKKVEGFKGDLYIIVKAPKFTKEMAELLLKALKEIKENGYAKKIVVEVEGEVSEEVLDLLLEGAKEIGVQIVVALSEE
# B6: GBRAP_128_3518 (protein)
# chain: STEEAVAKVRELMAKIKEASPEEAAELTREIAALIEAADPETREAMVDEFISLLPELSKEKLETIADTLRELRPAADPDVANLLAEVEVEALNEALELEE
# B7: GBRAP_80_6779 (protein)
# chain: ALERARAAIKRLEELNPEFAERARKILEKLEEKGASDETFEAFAEAVEAIAELLKLGLEEEAAELLEEMEEAAEEEDEEERTAMFRGIAGEALLAVEEAE
# B8: GBRAP_52_6137 (protein)
# chain: MEEELRKKAEEIIALVKAGKLDEAKALAEELAKSLNDEELKKFADKFAELVLKLPKEELDAAARAMDIVVDALEKVGVDEELISYFLGKATKAMYEVELR
# B9: GBRAP_52_6033 (protein)
# chain: MREEMRRLAEEIIALVKAGRLEEARALVREIVATKSEEELRLLGEELARLTREAPPEDLDAYMEAAEILADAMVEAGYEEVLADDLLARVAAAAVENLAA
# B10: GBRAP_128_3561 (protein)
# chain: SVEEAVAEAERLLEKIKASGPEEAREYARELAELLAAADEETREAMVETILARLPELSVEHLEILADVFREARPAADPRTAEALAEIEVEALNEAEEKEE
# B11: GBRAP_83_6947 (protein)
# chain: KEKIVVAANDDNVEEAVKIAADLAKTGKYEVTLEFIGTVEAAKKLIKEVEKALKEGVKFDVEVLLKGATEEEVKEIKAEFEKVAKAAGADVKVEVHAIKP
# B12: GBRAP_78_6598 (protein)
# chain: EVEELVDKAIEHLDKAAKLAKKLPPEESNKLLDLLVDAMSYLLEAIENGFDLELLEKAKEYVEKAIELAKKFNHPESPEIIKELEKALELLEKAIELVKK
# B13: GBRAP_52_5953 (protein)
# chain: MREEVERLVEELWALVAAGDLEGARALAREAVRTWDEEELRLLAEAVVERVAAAPPERLDEAFTLAEIVADEIEEEGRDEALAGDLLAGAARAIHAKELA
# B14: GBRAP_166_4946 (protein)
# chain: SLEEIVEETREFIEELAEQMKDADEEEQLDIYAEIAEKIEEAKEAGVPEEDILELIRLALELTKEAGGSVEQLVGVLEMFVDLSEEERDKVIELAKEVLK
# B15: GBRAP_150_3888 (protein)
# chain: DLETLEAIASTALDLLEESIETGGALLDAALKVVKALVDEAKEVSEELEKLAKEALKKIEEAKKLKKAGGPEEEIKKLLEEAAKIVEEILEKVEKLIEEE
# B16: GBRAP_160_4675 (protein)
# chain: SEEVEKLIEEIREILEEAVEMMEGESLEERIAIARVARGEILLLLSESPLVSDEIEDKADEIGEEFVEWIEAHPDATREELRELAEEAREKIEKAILEGQ
# B17: GBRAP_184_5336 (protein)
# chain: TTLEVSIEDLSLEEILARAAAAAAEAAAAGADLLIHLDLKGKSGEEIAEIVEAIGKIAKAAGIKNLTIGIDQAVDEETADKLIAIADKYGINLTLALEDE
# B18: GBRAP_160_4141 (protein)
# chain: KEELEKLIEEIREIAEEAIELIKDESREEAVAIARVALGEIVLLVMSNEAVSEETEEKVGEITRRAEEELLRRKDATNEEIIELLRRAAEEIIEILKEEI
# B19: GBRAP_11_2922 (protein)
# chain: EKEKLEEMAKLAEELAKTIEKLIEEGVDNEELLKEAEKKLKELEELTKKYGDEAAKKLVEIAKEEWEKALEDPENREEYLQRARNTARVLAGLYLLELEE
# B20: GBRAP_80_6815 (protein)
# chain: MEEEIEKNLKEIEEIDPELAKKVQEIVELARKLGVPLELIARYVKAILELAKLDLEKAKELVERLLARIKEAAAAGDREAALAEIVDAESEALLEVEELE
# B21: GBRAP_52_6365 (protein)
# chain: MLEEAVELLRKAVEATLAGKEEEAEEILKEIVENFSDETIVKAVERLAEEVATKTLEEAEAFLDTAIRLADIMLEAGRDEAKADEIEAIAAKAYSAVLAK
# B22: GBRAP_78_6606 (protein)
# chain: EVEELLEEAIELLSKAAKLLKELPPEVRDELMDLLVEAMSLLLESIEEGPNLKLLEEALKHVEEAIELLKKEKTPEAEKIIKLLEEAKEKIEKAIKLLKK
# B23: GBRAP_14_3764 (protein)
# chain: MEEIEKIIEETAREIVELLAEIAPERAEEFRRAVEEVRRKTIEEIRKTGNPEEAAEKGEEELVARVRAITADLPAEERARLEAVVRVEMGQAILEIDELL
# B24: GBRAP_137_3639 (protein)
# chain: MNVTIKTKTIDDLVEIEIEFDDPEKAEEAAELIEDIAHKHGALALSIEINEDGTLEATIWVPKEKAQALIDALVKAFKEKLKATVTIIDEDTGEVKTIKA
# B25: GBRAP_26_5487 (protein)
# chain: FEEEILRELEEEVRKILADEDETLRAAVIAEAEDLVLEAYEEFEKNADNKEAIKKAKEEALKELEEFLEKMGLSEEKRKKVVEAVEKALKRLEKEIQKKK
# B26: GBRAP_74_6513 (protein)
# chain: MEELLKKLEEAAKAGDVKELVKLAKEIAKTGDKETIERAAEIVVAYVEAHLDSLTPEELEALADALAELADKLMELGGDSETINRVAATAVALEEKLLAL
# B27: GBRAP_128_3345 (protein)
# chain: VDEEFIEEIKKLIEEMLEANEEEAKKLAKEIMEKLVKASLEEVKKAAEIIEENMPKFTAEHLEILADELRKYYDKFTPEQQEVIADLIVDLLNAAEEKEE
# B28: GBRAP_80_6761 (protein)
# chain: AEAALAAALARLKALDPELGARVAEVLERAVALGVPLAVVTRTVEALVELYEVDPERARKIAEELIERLTEALERGDRDEAIAILVDAESDALVEVEELE
# B29: GBRAP_160_4459 (protein)
# chain: SELKEKLIKEVDETREEAKEMIKGETHEQRVVIVEGLFGSFLLELAENENVSDELEDEVAEIVDELVDTLRANPDLTEEEIKALIDEAAEKIKEAIEKHL
# Biological target: GABARAP, O95166
# Sequence (O95166 whole entry, the tested form may be a part): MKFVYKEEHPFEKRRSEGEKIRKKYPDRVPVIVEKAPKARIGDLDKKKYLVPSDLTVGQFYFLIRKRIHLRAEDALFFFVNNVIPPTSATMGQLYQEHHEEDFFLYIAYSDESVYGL
# Assay: median log2 fold change of GCK-ALFA target abundance (FLAG IP / Myc IP barcode read proportion) (log2 ratio); each designed protein is fused to an ALFA-tag nanobody in HEK293 cells to bring the named protein to FLAG-tagged glucokinase (GCK); Myc marks an untargeted standard; higher = target protein stabilised (more abundant)
# Settings: target protein: 3xFLAG-MCP-GCK-ALFA reporter; HEK293 landing pad (RPLP)
# Outline: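 Sequencing of reverse-transcribed, amplified circular RNA barcodes from anti-FLAG and anti-Myc immunoprecipitates provided the readout for an ALFA-nanobody-fused binder library recombined into HEK293 landing-pad cells. Those cells were induced with 2 μg mL^−1 doxycycline, transfected with a plasmid expressing a FLAG-tagged target and a Myc-tagged standard, and lysed after 48 h. Target abundance is the per-binder median log2 ratio of FLAG to Myc barcode read proportions. Only barcodes at a proportion of ≥10^−7 in both replicates and binders with ≥3 barcodes per replicate were kept, with a 10^−6 pseudocount added before the two replicates were pooled.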
row,Binder,median log2 fold change
1,B1,0.274
2,B2,0.3
3,B3,-0.138
4,B4,-0.211
5,B5,0.0734
6,B6,0.0162
7,B7,-0.0127
8,B8,0.184
9,B9,-0.302
10,B10,0.287
11,B11,0.139
12,B12,0.052
13,B13,-0.171
14,B14,-0.0927
15,B15,0.101
16,B16,0.00851
17,B17,0.367
18,B18,-0.308
19,B19,0.194
20,B20,0.197
21,B21,-0.000301
22,B22,-0.743
23,B23,-0.129
24,B24,0.175
25,B25,0.208
26,B26,0.247
27,B27,0.223
28,B28,0.272
29,B29,-0.047
